In PubChem BioAssay AID1508649 (National Center for Advancing Translational Sciences (NCATS), 2021):
In all, about 43,000 compounds went through this assay and about 830 (1.9%) were called active. The shares of active, inactive and inconclusive entries below differ from those in the screen. Rule for the calls: active = clear falling dose curves in both reporters; inconclusive = both reporters move, but less clearly or upward; inactive = either reporter flat; the % is the NLuc reporter signal. No potency is given beside an inconclusive call; the fits are too rough.

assay: Cell-based coincidence reporter assay to measure PMP22 gene transcription in S16 Pmp22-F2sN cells - Primary screen; details: S16 Pmp22-F2sN Schwann cells (luciferase reporters placed in the Pmp22 gene), FLuc/NLuc coincidence luminescence, 24 h; measured here: NLuc reporter readout, at 57.5 µM (top of the series); activity change, negative = inhibition: at the top concentration
Method in brief: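 Rat S16 Pmp22-F2sN cells, 500-1,000/well in phenol red-free DMEM + 10% FBS, compound-treated 24 h (37C, 5% CO2). Luminescence: FLuc read, Stop&Glo added, NLuc read.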
% is set by controls: 0 for no effect and ±100 for the full control effect; potency is the fitted concentration of half-maximal effect; tags give direction and shape of the fitted curve.

| SMILES | Potency | activity change, negative = inhibition |
| --- | --- | --- |
| CCC(=O)N1c2ccc(S(=O)(=O)NCCc3ccccc3)cc2CC1C (stereo not given) | inconclusive [phenotype inactive, single point] |  |
| CCc1ccc(-c2[nH]nc3nc(-c4ccc(OC)cc4)cc(C(=O)NCCCOC)c23)cc1 | inconclusive [phenotype inactive, partial curve] |  |
| CCOC(=O)c1cc(-c2ccc(C)cc2)n(CC(=O)Nc2ccccc2F)c1C | inconclusive [phenotype inactive, single point] |  |
| CCOC(=O)c1c(Nc2ccc(F)cc2)nnc(-c2ccccc2)c1-c1ccccc1 | inconclusive [phenotype inactive, single point] |  |
| CCCCOc1ccc(CNC(=O)Cc2ccc(NC(=O)N3CCCCc4ccccc43)cc2)cc1 | inconclusive [phenotype inactive, partial curve, poor fit] |  |
| CCOC(=O)C1CCCN(C(=O)C2CCN(S(=O)(=O)c3c(C)noc3/C=C/c3ccccc3F)CC2)C1 (stereo not given) | inconclusive [phenotype inactive, single point] |  |
| CCC(=O)N1CCc2cc(Br)cc(S(=O)(=O)CCC(=O)N3CCN(c4ccc(F)cc4)CC3)c21 |  | inactive: -7.19% |
| COc1ccc2c(c1)-c1nc(NC(=O)c3ccc(OC)c(Br)c3)sc1CC2 | inconclusive [phenotype inactive, single point] |  |
| Cc1ccc(S(=O)(=O)N2CCCc3cc(NS(=O)(=O)c4cc(F)ccc4F)ccc32)cc1 | inconclusive [phenotype inactive, single point] |  |
| CCOc1ccccc1-c1noc(CSc2nnc(-c3ccccc3)n2-c2ccc(F)cc2)n1 | inconclusive [phenotype inactive, single point] |  |
| Cn1nnnc1SCCCNCc1cc(Cl)ccc1OCc1ccc(F)cc1 | inconclusive [phenotype inactive, partial curve] |  |
| COc1cccc(NC(=O)C(=O)NCC(c2ccc3c(c2)OCO3)N2CCN(C)CC2)c1 (stereo not given) |  | inactive: -29.9% |
| CCOC(=O)c1ccc(N2C(=O)c3n[nH]c(-c4ccco4)c3C2c2ccc(C)cc2)cc1 (stereo not given) | inconclusive [phenotype inactive, single point] |  |
| Cc1ccc(N2CCN(C(=O)c3cnc(N4CCCCC4)c4ccccc34)CC2)c(C)c1 | inconclusive [phenotype inactive, partial curve, poor fit] |  |
| Cn1c(=O)oc2cc(S(=O)(=O)N3CCCC(C(=O)NCc4ccc(F)cc4)C3)ccc21 (stereo not given) |  | inactive: -9.08% |
| Cc1ccc(CNc2ncnc3c2nnn3C)cc1 |  | inactive: -2.86% |
| Cc1cn2c(=O)cc(COC(=O)c3cccc(NC(=O)c4ccccc4Cl)c3)nc2s1 |  | inactive: -2.85% |
| CCc1ccc(-n2nc(C)c3c(C)cc(=O)n(CC(=O)Nc4ccc(C(C)=O)cc4)c32)cc1 | inconclusive [phenotype inactive, partial curve, poor fit] |  |
| Cc1c(C(=O)Nc2cccc(C(F)(F)F)c2)sc2nc3n(c(=O)c12)CCCC3 |  | inactive: -8.4% |
| CCN(CC)CCCNC(=O)CSc1c2c(nc3cc(Cl)ccc13)CCCC2 | active: 6.69 µM |  |

| SMILES | Potency | activity change, negative = inhibition |
| --- | --- | --- |
| CC1=C(C(=O)Nc2ccc(C)cc2C)C(C(C)C)n2nc(SCc3ccccc3Cl)nc2N1 (stereo not given) | inconclusive [phenotype inactive, single point] |  |
| Cc1cccc2sc(N(CCCN(C)C)C(=O)c3ccc(Cl)s3)nc12 | inconclusive [phenotype inactive, partial curve, poor fit] |  |
| COc1ccc(CNC(=O)c2nc(SC(C)C)ncc2Cl)cc1 |  | inactive: -54.8% |
| Cc1ccc(C)c(CN2CCC(CNC(=O)Nc3ccc(Br)cc3F)CC2)c1 | inconclusive [phenotype inactive, partial curve] |  |
| CCOC(=O)c1nc(Nc2ccc(C(C)=O)cc2)c2ccccc2n1 | inconclusive [phenotype inactive, partial curve, poor fit] |  |
| O=C1CC(c2cccc(O)c2)c2c(nc(SCc3ccccc3F)[nH]c2=O)N1 (stereo not given) | inconclusive [phenotype inactive, single point] |  |
| COCCCNC(=O)c1cc2c(=O)oc3ccc(C)cc3c2s1 | inconclusive [phenotype inactive, single point] |  |
| O=C(CCC1N=C2c3ccccc3N=C(SCc3ccc(Cl)cc3)N2C1=O)NCCc1ccccc1 (stereo not given) | inconclusive [phenotype inactive, single point] |  |
| O=C(Cn1c(=O)oc2cc(Cl)ccc21)Nc1cccc(C(F)(F)F)c1 | inconclusive [phenotype inactive, single point] |  |
| CCCCCn1cc2c(c1-c1ccc(Br)cc1)c(=O)n(C)c(=O)n2C | inconclusive [phenotype inactive, single point] |  |
| CCC(=O)Nc1ccc(CC)cc1-c1nc2ccccc2n(CC(=O)Nc2cccc(Cl)c2)c1=O | inconclusive [phenotype inactive, single point] |  |
| CCS(=O)(=O)c1ncc(N(Cc2ccccc2)Cc2ccco2)c(C(=O)Nc2ccc(C)c(C)c2)n1 |  | inactive: 3.14% |
| CCN(CC)CCCNC(=O)c1cn(CC)c2ccc(S(=O)(=O)N3CCc4ccccc4C3)cc2c1=O | inconclusive [phenotype inactive, single point] |  |
| Cc1nc(-c2ccc(Cl)cc2)sc1CCNC(=O)Cc1ccc(F)cc1 | inconclusive [phenotype inactive, single point] |  |
| O=C(CCC1N=C2c3ccccc3N=C(SCc3ccc(Cl)cc3)N2C1=O)NC1CCCCC1 (stereo not given) | inconclusive [phenotype inactive, partial curve] |  |
| Cc1ccc2c(c1)C(C)(c1ccccc1)CC(C)(C)N2C(=O)c1ccc(F)cc1 (stereo not given) | inconclusive [phenotype inactive, single point] |  |
| CCOc1ccc(-c2noc(CSc3nnc(Cc4ccccc4)n3-c3ccc(F)cc3)n2)cc1 | inconclusive [phenotype inactive, single point] |  |
| CCOCCc1nn2c(=O)cc(COC(=O)c3ccccc3NC(=O)CC(C)C)nc2s1 | inconclusive [phenotype inactive, single point] |  |
| CCN1CCOC(=O)C1CC(=O)Nc1cc(Cl)ccc1C (stereo not given) | active: 10.6 µM |  |
| CCC(=O)Nc1ccccc1C(=O)OCc1cc(=O)n2cc(C)sc2n1 | inconclusive [phenotype inactive, single point] |  |

| SMILES | Potency | activity change, negative = inhibition |
| --- | --- | --- |
| CCOC(=O)c1c(NC(=O)/C=C/c2ccc(Cl)cc2)sc2c1CCC(C)C2 (stereo not given) |  | inactive: -1.36% |
| O=C(NCC(c1ccc2c(c1)OCO2)N1CCN(c2ccccc2F)CC1)c1ccccc1F (stereo not given) | inconclusive [phenotype inactive, single point] |  |
| Cc1c(C(=O)NCc2ccc(OC(C)C)cc2)sc2ncnc(N(C)C3CCCCC3)c12 | inconclusive [phenotype inactive, partial curve] |  |
| CC1=Nc2cc(C(=O)N3CCCCC3)ccc2Sc2ccc(C)cc21 |  | inactive: -25.8% |
| CCc1cc2c(cc3c(=O)n(CC(=O)NCCc4ccccc4)ncn32)s1 | inconclusive [phenotype inactive, single point] |  |
| O=C(Nc1ccc(Cl)c(C(F)(F)F)c1)C(Cc1ccccc1)NS(=O)(=O)c1cccc2nsnc12 (stereo not given) | inconclusive [phenotype inactive, single point] |  |
| COc1ccc(Nc2cc(C(=O)NCCCN(C)C3CCCCC3)c3ccccc3n2)c(OC)c1 | inconclusive [phenotype inactive, partial curve] |  |
| Cc1cc(C)c2oc(C(=O)Nc3ccc(S(=O)(=O)Nc4nccc(C)n4)cc3)cc(=O)c2c1 | inconclusive [phenotype inactive, single point] |  |
| Cc1nnc2c3ccccc3nc(Nc3cccc(O)c3)n12 | inconclusive [phenotype inactive, full curve, poor fit] |  |
| CCCCOC(=O)c1ccc(Nc2nnc(-n3nc(C)cc3C)c3ccccc23)cc1 | inconclusive [phenotype inactive, single point] |  |
| CCc1ccc(CN(C(=O)c2cc(=O)c3ccc(C)cc3o2)C2CCS(=O)(=O)C2)cc1 (stereo not given) |  | inactive: -15.8% |
| Cc1ccc2sc(N(Cc3cccnc3)C(=O)C3COc4ccccc4O3)nc2c1C (stereo not given) |  | inactive: -67.6% |
| Cc1ccc(NC(=O)c2c(NC(=O)c3ccccc3)sc3c2CCC3)cc1 |  | inactive: -3.2% |
| O=C(CSc1oc(-c2ccccc2)nc1S(=O)(=O)c1ccccc1)c1ccccc1 | inconclusive [phenotype inactive, single point] |  |
| Cc1ccc(CN(Cc2ccco2)c2cnc(S(C)(=O)=O)nc2C(=O)Nc2ccccc2Br)o1 | inconclusive [phenotype inactive, single point] |  |
| Cc1cc(C)cc(NC(=O)Cn2cc(C(=O)c3ccccc3)c(=O)c3ccc(C)nc32)c1 |  | inactive: -2.68% |
| CCOc1ccc(-c2cc(C(=O)NCCc3ccc(Cl)cc3)c3ccccc3n2)cc1 |  | inactive: -3.56% |
| Cc1nnc(NC(=O)C(=O)c2cc(C)n(-c3ccc(C)c(C)c3)c2C)s1 | active: 2.89 µM |  |
| COCCn1c(=N)c(C(=O)NCc2ccco2)cc2c(=O)n3cc(C)ccc3nc21 |  | inactive: -24.4% |
| CCn1c(=O)cc(OCC(=O)Nc2ccc(C)c(F)c2)c2ccccc21 | inconclusive [phenotype inactive, single point] |  |
